Assay results as given in patent US20100022584A1, “Modulation of Glutamine Synthetase Activity” (priority 2006, published 2010).
Positions count from the first letter of the chain named. Some values that stand alone complete this part of the results.

Experiments:
[1] = biological target: T1, glutamine synthetase mutant Y397V (Escherichia coli, UniProt P0A9C5, Y398V); experiment: HPLC forward-reaction glutamine synthetase assay with serine protease inhibitors; type: biochemical, E. coli; settings: 1 mM inhibitor, 60 min pre-incubation, positive = activity increased
T1 construct: made in house; host or cells: E. coli YMC11 (glutamine synthetase auxotroph), pBluescript II SK+
T1 sequence (P0A9C5 2-469 Y398V limits assumed): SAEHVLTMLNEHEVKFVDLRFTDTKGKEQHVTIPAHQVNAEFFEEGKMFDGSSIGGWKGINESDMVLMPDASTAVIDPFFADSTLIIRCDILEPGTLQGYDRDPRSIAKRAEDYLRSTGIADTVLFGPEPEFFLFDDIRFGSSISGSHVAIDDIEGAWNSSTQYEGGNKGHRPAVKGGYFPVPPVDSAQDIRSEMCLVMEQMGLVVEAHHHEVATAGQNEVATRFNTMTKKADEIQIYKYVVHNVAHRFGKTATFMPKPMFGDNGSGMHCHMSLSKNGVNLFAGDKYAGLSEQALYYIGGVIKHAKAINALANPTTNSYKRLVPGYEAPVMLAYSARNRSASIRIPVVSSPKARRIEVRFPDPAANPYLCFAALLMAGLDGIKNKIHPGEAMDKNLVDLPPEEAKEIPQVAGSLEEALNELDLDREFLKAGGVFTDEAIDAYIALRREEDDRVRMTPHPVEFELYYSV

[2] = biological target: T2, glutamine synthetase mutant S52A Y397V (Escherichia coli, UniProt P0A9C5, S53A/Y398V); experiment: as above; type: biochemical, E. coli; settings: 1 mM inhibitor, 60 min pre-incubation, vs no-inhibitor control, positive = activity increased
T2 construct: made in house; host or cells: E. coli YMC11 (glutamine synthetase auxotroph), pBluescript II SK+
T2 sequence (P0A9C5 2-469 S53A/Y398V limits assumed): T1 sequence (P0A9C5 2-469 Y398V limits assumed) with S52A
Method: This assay was set up to measure glutamine synthetase activity according to the forward reaction, and measures the amount of glutamine formed from […] of L-glutamate in the presence of MnCO3-ATP (the basis of one reaction) and MgATP (the basis of a second reaction). In addition, the amount of ADP formed is also measured in a separate assay, using the same reagents.
All enzyme preparations were adjusted to the same concentration of protein, and added to the assay mixture in a volume of 50 μl. The addition of the enzyme started the reaction, which was then allowed to proceed for 1 hour. The reaction was stopped by the addition of 6 μl of a 50% solution of trichloroacetic acid. Each assay was then aliquoted into 4 HPLC vials (150 μl per vial), two of which were assayed for glutamate and glutamine using a Phenomenex Luna 5 μC18 Column on an Agilent 100 HPLC instrument. The ATP/ADP assays were run on a Chromolith Performance RP-18c column also using an Agilent 100 HPLC instrument.
As it is believed that two putative catalytic triads, similar to those in the serine proteases, are involved in the reaction mechanism of glutamine synthetase, certain of the mutants were also assayed by HPLC in the presence of the serine protease inhibitors, AEBSF and PMSF, in order to assess the effect that these inhibitors had on the enzyme. The enzymes assessed were the adenylylated WT enzyme, the deadenylylated WT enzyme, and the mutant enzymes S52A, S52A Y397V, S53A, S53A Y397V, S52A S53A and S52A S53A Y397V. The enzymes were pre-incubated for 60 minutes in the presence of 1 mM PMSF or 1 mM AEBSF. A control reaction was set up for each enzyme, which contained no inhibitor. Each enzyme was then added to assays set up as described above. The assay was allowed to proceed for 60 minutes, then stopped by the addition of […] of 50% TCA, after which they were analysed by HPLC. All assays were run in triplicate.
In addition to the γ-glutamyl transferase assays, assays were also developed to measure the rate of conversion of ATP and glutamate to ADP and glutamine by HPLC. These were set up as single assays but analysed separately for glutamate and glutamine and ATP and ADP. The conversion rates for glutamate to glutamine, in both the presence of Mn^2+ and Mg^2+ by glutamine synthetase, is referred to as the […] specific activity and is presented in μmoles/min/mg protein. The conversion rates for ATP to ADP, in both the presence of Mn^2+ and Mg^2+ by glutamine synthetase, is referred to as the ADP-based specific activity and is presented in μmoles/min/mg protein. The percentage of conversion was also calculated by dividing the glutamine-based specific activity by the ADP-based specific activity, and this value is interpreted as the ability of the enzyme to complete both steps of the reaction, i.e., glutamate to glutamine and ATP to ADP, at an equivalent level of efficiency.

[3] = Mg assay, ADP-based specific activity
[4] = Mg assay, glutamine-based specific activity
[5] = Mn assay, ADP-based specific activity
[6] = Mn assay, glutamine-based specific activity

| SMILES | % change in specific activity vs no-inhibitor control [1, 3] | % change in specific activity vs no-inhibitor control [1, 4] | % change in specific activity vs no-inhibitor control [1, 5] | % change in specific activity vs no-inhibitor control [1, 6] | % Change in Specific Activity [2, 3] | % Change in Specific Activity [2, 4] | % Change in Specific Activity [2, 5] | % Change in Specific Activity [2, 6] |
| --- | --- | --- | --- | --- | --- | --- | --- | --- |
| O=S(=O)(F)Cc1ccccc1 [PMSF] | −4.88% | −31.39% | −17.58% | −44.47% | +73.28% | −77.41% | −15.50% | −29.12% |
| NCCc1ccc(S(=O)(=O)F)cc1 [AEBSF] | −43.37% | −10.83% | −20.13% | −4.98% | −100.00% | +1.95% | −16.65% | −11.57% |
